PubChem BioAssay (NCI)
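In this assay, cells in 96-well plates receive the compound at five concentrations for 48 hours. Endpoints are linearly interpolated between the surrounding concentrations. Abbreviation: GI50, concentration required for 50% inhibition of growth. TGI: total growth inhibition.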

Test system: NCI-H322M lung
Experiment: NCI anticancer screen, dose series, 48 h

| SMILES | TGI | GI50 |
| --- | --- | --- |
| CCc1ccccc1NC(=O)C(=O)C(C#N)c1c(Cl)cccc1Cl (centres undefined) | > 100 µM | – |
| NS(=O)(=O)c1cc(C(=O)O)c(Cl)c([N+](=O)[O-])c1Cl | > 100 µM | – |
| CCS(=O)(=O)N1CCN(c2ccc(Nc3ncc(C(N)=O)c(NC4CC4)n3)cc2)CC1 | > 100 µM | 12.3 µM |
| Cc1ccc2c(c1)CC1(C2)Cc2ccc(C)cc2C1=O (centres undefined) | 55.5 µM | – |
| C[C@@H](Oc1cc(-c2cnn(C3CCNCC3)c2)cnc1N)c1c(Cl)cc(F)cc1Cl | 18.1 µM | 5.11 µM |
| Oc1ccc(/C=N/c2nccs2)c(O)c1 | > 100 µM | – |
| C/C(=C\CC/C=C(\C)CC/C=C(\C)CCC1SC1(C)C)CC/C=C(\C)CCC1OC1(C)C (centres undefined) | > 100 µM | – |
| Cc1cnc2[nH]c(-c3ccc(Cl)cc3)cc(=O)c2c1 | > 100 µM | – |
| COC1(C)CNCC(C)(C)NC(=O)C(C)(OC)CNCC(C)(C)NC1=O (centres undefined) | > 100 µM | – |
| CC(C)(C)NC(=S)N/N=C/c1ccccn1 | > 100 µM | – |
| COc1nc2c(c(=O)[nH]1)N=C(c1ccc(Cl)cc1)CC(c1ccccc1)N2 (centres undefined) | > 100 µM | – |
| C(=C\c1ccc(OCC2CO2)cc1)/C1=NCOC1 (centres undefined) | 38.8 µM | 19.8 µM |
| Oc1cccc2ccc(Br)nc12 | > 100 µM | – |
| Nc1nc(N)c(-c2ccc(Cl)c(Cl)c2)c(CP(Cl)(Cl)(Cl)Br)n1 | > 100 µM | 8.48 µM |
| C=C1C(=O)O[C@H]2[C@H]1CC/C(COC(=O)/C=C\C(=O)NCc1ccc(Cn3c(=O)sn(-c4ccc(Cl)cc4)c3=O)cc1)=C\CC[C@@]1(C)O[C@@H]21 | 4.79 µM | 1.86 µM |
| CC1OC(CC2C=CCc3c(O)c4c(c(O)c32)C(=O)c2ccccc2C4=O)CC(NC(=O)C(F)(F)F)C1O (centres undefined) | 24.5 µM | – |
| C[C@H]1S[C@H](c2c(F)cccc2F)n2c1nc1ccccc12 | > 100 µM | – |
| S=C1Cc2c(-c3ccccc3)cc(-c3ccc(Cl)cc3)nc2-c2ccccc2N1 | 13.9 µM | – |
| N#CC(C#N)=Cn1c(=S)[nH]c2ccc([N+](=O)[O-])cc21 | > 100 µM | – |
| Cc1ccc(O)c(C2=NNC(c3cccc(Cl)c3)C2)c1 (centres undefined) | > 100 µM | – |
| C=CCC1C(=O)CC2(C)C(CC=C)C(=O)CC12C (centres undefined) | > 100 µM | – |
| N#CCC(=O)Nc1ccccc1O | > 100 µM | – |
| O=c1c2ccccc2nc(N/N=C/c2ccc(Cl)cc2)n1-c1ccccc1 | > 100 µM | – |
| N#CC1=C(c2ccccc2)OC2(N)OC(c3ccccc3)=C(C#N)C12C#N (centres undefined) | > 100 µM | – |
| CCOC(=O)c1ccn2c(c1)c(C#N)c1nc3ccccc3nc12 | > 100 µM | – |
| CC1(C)CCC[C@@]2(C)C1CC[C@@]1(CO1)[C@@H]2/C=C\C(C=O)CC=O (some centres undefined) | > 100 µM | – |
| C=CCN1C(=O)CS/C1=N\NC(=O)CSc1nc2ccccc2c(=O)n1CC | > 100 µM | – |
| Cn1cc(-c2nc(-c3cn(C)c4ncccc34)cs2)c2ccccc21 | 51.5 µM | 2.76 µM |
